Test results published in PMC6538657.
Results are given in words; binding and its absence hold for the method and conditions named. For some assays here: In cells and extracts the contact can be indirect. Some entries that bind do so weakly or less than the wild type.

Chains of the proteins cited; added tags and fusions are not shown. Lines headed by an entry give the natural chain unless they say otherwise; changes in a name come on top.
UniProt Q15672: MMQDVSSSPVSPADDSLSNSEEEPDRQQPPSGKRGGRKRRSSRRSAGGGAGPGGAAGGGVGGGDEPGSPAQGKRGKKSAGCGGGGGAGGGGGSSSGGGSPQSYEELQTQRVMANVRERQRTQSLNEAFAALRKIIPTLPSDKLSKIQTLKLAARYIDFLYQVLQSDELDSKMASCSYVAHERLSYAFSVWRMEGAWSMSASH
UniProt P78543: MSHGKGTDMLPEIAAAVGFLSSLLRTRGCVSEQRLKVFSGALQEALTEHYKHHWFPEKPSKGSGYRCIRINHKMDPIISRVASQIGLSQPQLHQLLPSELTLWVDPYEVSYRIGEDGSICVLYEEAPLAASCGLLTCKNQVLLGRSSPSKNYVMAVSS

Tests used:
[1] = target: Twist1 (on the 19K-protein chip) (UniProt Q15672); test: peptide or protein array; 19K-protein chip analysis with BTG2^/TIS21 protein
[2] = target: GST-BTG2 (human) (UniProt P78543); test: pull-down; GST and GST-BTG2 beads incubated with lysates of transfected 293TN cells at 4 °C overnight; immunoblot with anti-v5 or anti-Flag antibody; only the target purified
[3] = target: BTG2-HA (human) (UniProt P78543); test: co-IP; 293TN cells co-transfected; whole-cell lysate (1.0 mg) in E1A buffer (50 mM HEPES pH 7.5, 150 mM NaCl, 0.1% NP-40, 5 mM EDTA), IP with anti-HA antibody overnight at 4 °C, protein G beads; immunoblot
[4] = target: BTG2-HA (in HeLa cells) (human) (UniProt P78543); test: co-IP; competition assay in HeLa cells: BTG2-HA and v5-Twist1 with increasing Flag-cNOT7
[5] = target: Flag-Twist1 (UniProt Q15672); test: co-IP; 293TN cells transfected with Flag-Twist1 (1.0 μg) and v5-BTG2 (1.0 μg); IP with 1.0 µg of anti-Flag antibody
[6] = target: endogenous BTG2 protein (MCF-7) (human (endogenous in MCF-7)) (UniProt P78543); test: co-IP; MCF-7 cells transfected with v5-Twist1; IP with anti-BTG2 antibody
[7] = target: v5-Twist1 (UniProt Q15672); test: co-IP; 293TN cells co-transfected; lysate in E1A buffer, IP with anti-v5 antibody overnight at 4 °C, protein G beads; immunoblot; with or without MG132 treatment (Fig. 4c)
[8] = target: BTG2-HA (human) (UniProt P78543); test: co-IP; 293TN cells co-transfected; 1 mg of cytoplasmic / nuclear fractions pulled down with 1 μg of anti-HA antibody overnight at 4 °C

| Substance | binding [2] | binding [3] | further results |
| --- | --- | --- | --- |
| BTG2^/TIS21 protein (probe of the 19K-protein chip) (from UniProt P78543 1-158) | – | – | binding [1]: binds |
| v5-Twist1 (in HeLa cells) (from UniProt Q15672 1-202) | – | – | binding [4]: binds |
| v5-BTG2 (from UniProt P78543 1-158) | – | – | binding [5]: binds |
| v5-Twist1 (in MCF-7 cells) (from UniProt Q15672 1-202) | – | – | binding [6]: binds |
| BTG2-HA (from UniProt P78543 1-158) | – | – | binding [7]: binds |
| v5-Twist1 (from UniProt Q15672 1-202) | binds | binds | binding [8]: binds |
| 3xFlag-tagged Twist1 wild type (1-202) (from UniProt Q15672 1-202) | binds | binds | – |

More lines, main results first:

| binding [2] | binding [3] | Substance | further results |
| --- | --- | --- | --- |
| no binding | no binding | 3xFlag-tagged Twist1 deletion mutant 1-121 (from UniProt Q15672 1-121) (domain or fragment) | – |
| no binding | no binding | 3xFlag-tagged Twist1 deletion mutant 1-161 (from UniProt Q15672 1-161) (domain or fragment) | – |
